These results are taken from article PMC4005673.

By UniProt entry, the sequences of proteins in these tests, tags left out.
UniProt P12956: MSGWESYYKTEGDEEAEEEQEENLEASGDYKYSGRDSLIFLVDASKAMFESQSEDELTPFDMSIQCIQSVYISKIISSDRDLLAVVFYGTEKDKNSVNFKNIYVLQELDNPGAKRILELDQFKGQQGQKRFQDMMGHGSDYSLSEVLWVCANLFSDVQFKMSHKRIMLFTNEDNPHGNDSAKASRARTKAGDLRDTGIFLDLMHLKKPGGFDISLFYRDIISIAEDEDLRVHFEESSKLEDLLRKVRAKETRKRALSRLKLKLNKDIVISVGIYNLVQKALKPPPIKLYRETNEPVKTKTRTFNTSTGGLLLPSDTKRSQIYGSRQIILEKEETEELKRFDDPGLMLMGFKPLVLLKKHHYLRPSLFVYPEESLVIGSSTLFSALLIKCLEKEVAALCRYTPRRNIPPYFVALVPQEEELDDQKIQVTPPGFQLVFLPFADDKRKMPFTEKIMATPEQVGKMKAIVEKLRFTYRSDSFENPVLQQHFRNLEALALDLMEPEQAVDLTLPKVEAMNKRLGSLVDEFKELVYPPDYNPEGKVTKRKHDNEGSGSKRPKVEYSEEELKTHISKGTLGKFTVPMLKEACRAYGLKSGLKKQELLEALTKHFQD
UniProt P13010: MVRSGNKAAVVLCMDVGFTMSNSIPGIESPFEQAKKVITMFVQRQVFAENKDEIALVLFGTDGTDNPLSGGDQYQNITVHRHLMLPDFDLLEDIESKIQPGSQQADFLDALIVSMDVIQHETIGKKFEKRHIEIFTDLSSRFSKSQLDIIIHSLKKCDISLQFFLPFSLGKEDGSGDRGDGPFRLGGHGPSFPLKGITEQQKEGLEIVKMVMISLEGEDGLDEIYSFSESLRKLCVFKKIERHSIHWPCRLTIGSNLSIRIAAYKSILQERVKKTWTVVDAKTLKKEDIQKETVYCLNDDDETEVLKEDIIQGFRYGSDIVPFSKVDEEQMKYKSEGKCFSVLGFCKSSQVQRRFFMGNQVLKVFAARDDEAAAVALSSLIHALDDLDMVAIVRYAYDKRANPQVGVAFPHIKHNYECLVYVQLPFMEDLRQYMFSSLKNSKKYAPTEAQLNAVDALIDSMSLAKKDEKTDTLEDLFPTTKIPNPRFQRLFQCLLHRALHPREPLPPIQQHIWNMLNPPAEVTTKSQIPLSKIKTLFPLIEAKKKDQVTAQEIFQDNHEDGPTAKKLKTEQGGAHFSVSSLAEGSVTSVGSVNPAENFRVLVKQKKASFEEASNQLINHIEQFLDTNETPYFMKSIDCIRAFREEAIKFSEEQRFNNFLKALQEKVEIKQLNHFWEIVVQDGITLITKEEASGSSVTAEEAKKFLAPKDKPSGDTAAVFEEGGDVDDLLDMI

Experiment [1] has as its target T1, Kub5-Hera (K-H), endogenous (human (endogenous in HeLa and human foreskin fibroblasts)) (UniProt Q9NQG5).
T1 sequence: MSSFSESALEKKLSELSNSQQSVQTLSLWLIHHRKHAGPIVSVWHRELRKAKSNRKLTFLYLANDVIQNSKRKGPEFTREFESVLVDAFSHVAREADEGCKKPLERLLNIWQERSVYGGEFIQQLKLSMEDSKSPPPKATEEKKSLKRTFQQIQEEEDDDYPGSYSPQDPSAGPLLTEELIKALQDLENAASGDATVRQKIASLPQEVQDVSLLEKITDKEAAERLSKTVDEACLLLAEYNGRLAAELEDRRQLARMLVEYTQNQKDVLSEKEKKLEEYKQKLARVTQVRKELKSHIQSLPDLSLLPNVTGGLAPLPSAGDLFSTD
In words: co-IP; co-IPs with the K-H-specific antibody after DNase treatment; data not shown.

Experiment [2] concerns the target T1, Kub5-Hera (K-H), endogenous (human (endogenous in HeLa and human foreskin fibroblasts)). The experiment can be described thus: co-IP; nuclear extracts of shScr cells; K-H-specific antibody on Protein A/G beads; with and without ethidium bromide (5 uM); washed with NETN (0.1 M NaCl, 0.05% NP-40); western blot. For orientation: A western blot detects proteins with antibodies after separation by electrophoresis.

For experiment [3] the target is unchanged. The experiment can be described thus: SEC; HeLa whole-cell extract (with turbonuclease) on Superose 6 HR 10/30 in 25 mM Tris-HCl pH 7.7, 100 mM NaCl, 5% glycerol, 1 mM DTT; fractions blotted for the indicated proteins; fractions 27-29 concentrated to see Artemis. For orientation: In gel filtration, larger molecules generally elute earlier.
The target in a further experiment is Ku70 (UniProt P12956). In words: two-hybrid; yeast two-hybrid; growth on selection media and beta-galactosidase activity; screen for Ku70-binding partners, deletion analyses and point mutant.

Changes are numbered by the printed parent chain. Names and notes keep the numbering of the source. No constants are given. Whether binding was seen depends on the method and setting. For part of these data: In cells and extracts the contact can be indirect. Some entries that bind do so weakly or less than the wild type.

Take “Ku70, endogenous (from UniProt P12956 1-609)”: the binding entry in experiment [1], in experiment [2] and in experiment [3] was “binds” in each case.

As to “Ku86, endogenous (from UniProt P13010 1-732)”, in experiment [3], the binding result was “binds”.

B1: Ku70 binding protein #5-Hera (K-H) (protein, UniProt Q9NQG5 1-326)
chain: T1 sequence
For B1, the binding entry in the experiment with Ku70 is reported as “binds”.

B2: K-H L276A (protein, UniProt Q9NQG5 1-326)
chain: T1 sequence with L276A
As for B2, in the experiment with Ku70, the binding result is recorded as “no binding”.
